Out of some 280,000 compounds screened, about 1,100 (0.39%) were called active. Inconclusive results, whose numbers are uncertain, are shown with a selection of clear calls. Calls follow the shape of the dose curve; as a rule, active = well fitted inhibition curve with a large enough effect; inconclusive = small, poorly fitted or top-dose-only effect, or effect the other way; inactive = flat fitted curve, though single readings scatter. No potency is given beside an inconclusive call; the fits are too rough.
Biological target: Microtubule-associated protein tau (Homo sapiens) (UniProt P10636)
Test: qHTS for Inhibitors of Tau Fibril Formation, Fluorescence Polarization; also: nearly all actives have a fitted effect of over 55% in size
Details: K18 P301L tau heparin fibrillization, Alexa594 FP, 6 h; series mostly up to 57.7 µM; activity, negative = inhibition: at the top concentration
In short: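 Compound effects on tau fibrillization are measured by Alexa 594 fluorescence polarization (ex 555, em 632 nm). K18 P301L tau is used at 15 uM with 0.24 uM labeled tracer, and 20 uM heparin induces aggregation over 6 hr at 37 C.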
% is scaled to controls: 0 for no effect and ±100 for the full control effect; potency is read from the fitted curve at half-maximal effect; tags tell the direction and shape of the fitted curve.

Sequence of UniProt P10636 (P10636 whole entry, looked up): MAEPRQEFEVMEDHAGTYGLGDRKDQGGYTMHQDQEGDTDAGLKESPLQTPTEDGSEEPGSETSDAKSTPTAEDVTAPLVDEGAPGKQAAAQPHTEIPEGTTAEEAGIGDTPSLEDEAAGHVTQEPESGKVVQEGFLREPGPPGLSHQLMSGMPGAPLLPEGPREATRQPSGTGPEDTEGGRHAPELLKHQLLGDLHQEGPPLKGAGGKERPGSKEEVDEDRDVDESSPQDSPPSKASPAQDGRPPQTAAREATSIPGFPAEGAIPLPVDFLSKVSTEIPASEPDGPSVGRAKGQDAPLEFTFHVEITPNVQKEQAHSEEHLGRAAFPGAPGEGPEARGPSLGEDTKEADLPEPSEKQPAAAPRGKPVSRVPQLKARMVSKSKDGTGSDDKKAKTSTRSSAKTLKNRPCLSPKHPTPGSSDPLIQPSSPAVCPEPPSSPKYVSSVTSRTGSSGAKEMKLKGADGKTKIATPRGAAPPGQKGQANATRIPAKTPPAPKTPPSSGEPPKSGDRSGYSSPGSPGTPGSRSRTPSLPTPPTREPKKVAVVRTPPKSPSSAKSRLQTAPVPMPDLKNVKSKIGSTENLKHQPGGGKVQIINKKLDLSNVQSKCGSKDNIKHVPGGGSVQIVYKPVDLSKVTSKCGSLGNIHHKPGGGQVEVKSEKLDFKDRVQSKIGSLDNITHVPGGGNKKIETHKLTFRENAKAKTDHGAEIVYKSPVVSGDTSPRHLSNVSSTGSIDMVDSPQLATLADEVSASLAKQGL

Compound | Potency | activity, negative = inhibition
CCS(=O)(=O)Nc1cccc(C2=NN(S(=O)(=O)c3ccc(C)cc3)C(c3cccs3)C2)c1 (centres undefined) | inconclusive [inhibitor, partial curve, poor fit] | 
CC(C)(C)c1ccc(C(=O)NNc2cc(N3CCCCC3)nc(N3CCCCC3)n2)cc1 |  | inactive: 10.2%
O=C(NNc1ncc(C(F)(F)F)cc1Cl)c1ccc(Cl)c(Cl)c1 |  | inactive: -1.31%
COc1ccccc1NC(=S)N(CCc1c(C)[nH]c2ccccc12)Cc1cccs1 | inconclusive [activator, partial curve] | 
COc1ccc(OC)c(C2C(C#N)=C(N)Oc3cc(C)[nH]c(=O)c32)c1 (centres undefined) |  | inactive: 0.641%
O=C(Nc1ccccc1)C1=C[C@H](C2CCCCC2)C[C@H](OCc2ccc(CO)cc2)O1 |  | inactive: 6.25%
Cc1cc(C)c2nc(NC(=O)c3ccc(S(=O)(=O)N4CCc5ccccc54)cc3)sc2c1 | inconclusive [inhibitor, partial curve, poor fit] | 
CCCCNC(=S)Nc1cc(S(=O)(=O)N2CCCCC2)ccc1C | inconclusive [inhibitor, single point] | 
COc1cc(NC(=O)c2ccc3c(=O)n(Cc4ccco4)c(=S)[nH]c3c2)cc(OC)c1OC | inconclusive [inhibitor, partial curve, poor fit] | 
O=C(NNS(=O)(=O)c1ccccc1)c1csc(-c2cccnc2)n1 | inconclusive [inhibitor, single point] | 
CC(C)Cn1nnnc1S(=O)(=O)CCc1ccccc1 |  | inactive: 1.81%
Cc1cccc(-n2c(C)nc3cc(C(=O)NCCC4=CCCCC4)ccc32)c1 | inconclusive [activator, single point] | 
Cc1nn(C)cc1CN(C)S(=O)(=O)c1cccc([N+](=O)[O-])c1 | inconclusive [inhibitor, partial curve, poor fit] | 
Cc1ccc(/C=C2\SC(=S)N(c3cccnc3)C2=O)o1 | inconclusive [inhibitor, single point] | 
O=C(CSc1nc(Nc2ccc(F)cc2)c2ccccc2n1)c1ccc(F)cc1 | inconclusive [inhibitor, partial curve] | 
O=C(O)C1=CC(O)[C@@H](O)C(O)C1 (some centres undefined) |  | inactive: 4.06%
COc1cccc(C2C(C#N)=C(N)OC(C(C)(C)C)=C2C#N)c1 (centres undefined) |  | inactive: -9.52%
CCOc1cc(C(c2c(C)[nH][nH]c2=O)c2c(C)[nH][nH]c2=O)ccc1O | inconclusive [inhibitor, full curve] | 
CCN(c1ccccc1)S(=O)(=O)c1ccc(Cl)c(NC(=O)Nc2ccc(Cl)cc2C#N)c1 | inconclusive [inhibitor, single point] | 
O=C(CN1CCCC1)NCC12CC3CC(CC(C3)C1)C2 |  | inactive: 3.89%
COc1ccc2cc3cc(C(=O)N4CCN(c5ccccc5F)CC4)oc3nc2c1 | inconclusive [inhibitor, partial curve] | 
O=C(COCC(=O)N/N=C/c1ccc(F)cc1)N/N=C/c1ccc(F)cc1 | inconclusive [activator, partial curve] | 
CC(CNC(=O)CN1C(=O)c2cccnc2Oc2ccc(Cl)cc21)c1ccccc1 (centres undefined) | inconclusive [activator, single point] | 

Compound | Potency | activity, negative = inhibition
COC(=O)c1ccc(NC(=O)N2CCN(Cc3cc(=O)n4nc(-c5ccc(C)cc5)sc4n3)CC2)cc1 |  | inactive: 0.288%
COC(=O)c1cn(NC(=O)Cc2ccc(Cl)c(Cl)c2)c(=O)c2ccccc12 | inconclusive [inhibitor, single point] | 
Cn1cc(C2=C(c3cn(CCCSC(=N)N)c4ccccc34)C(=O)NC2=O)c2ccccc21 | inconclusive [inhibitor, single point] | 
Cc1nc2c(c(C)c1CCC(=O)NCc1ccc(Cl)cc1)c(=O)n(C)c(=O)n2C |  | inactive: 0.566%
COc1cccc(-c2ccc3ncnc(NCc4cccs4)c3c2)c1 | inconclusive [inhibitor, partial curve, poor fit] | 
Cc1ccc(Cl)cc1N1CCN(Cc2cc(=O)n3ccsc3n2)CC1 |  | inactive: -5.72%
CC1CN(C(=O)CSc2nnc3c(Cl)cc(Cl)cn23)CC(C)O1 (centres undefined) |  | inactive: -7.7%
O=C(NCC1CCCO1)C1CCCN1C(=O)NC1CCCCC1 (centres undefined) |  | inactive: -1.34%
COc1ccc(-c2nnc3n2N(C(C)=O)C(c2ccc(Cl)c(Cl)c2)=C(C(C)=O)S3)cc1 |  | inactive: -10.4%
COc1ccccc1NC(=O)Cn1c(=O)c(CNc2ccc(C)cc2)cc2cc3c(cc21)OCCO3 | inconclusive [activator, partial curve, poor fit] | 
Cc1cccc(N2C(=O)CSC23C(=O)N(CC(=O)NCc2ccccc2Cl)c2ccccc23)c1 (centres undefined) |  | inactive: -5.98%
Cc1ccc(-c2cc(-c3cccs3)[nH]n2)c(O)c1 | inconclusive [inhibitor, partial curve, poor fit] | 
Cc1ccc(NC(=O)c2nnn(CC(=O)Nc3ccc(C)c(Cl)c3)c2N)c(C)c1 | inconclusive [inhibitor, partial curve, poor fit] | 
Clc1ccc(-c2nc3n(n2)Cc2ccccc2-3)cc1 |  | inactive: 1.38%
CC1=C(C(=O)Nc2ccccc2)C(c2cc(Br)ccc2F)n2ncc(C(=O)Nc3ccccc3)c2N1 (centres undefined) | inconclusive [inhibitor, partial curve] | 
CC1(C)CC(=O)C(=Cc2cn(-c3ccccc3)nc2-c2ccc(Cl)cc2)C(=O)C1 |  | inactive: -2.25%
O=c1c2ccccc2nc(-c2ccc(Cl)cc2)n1CCCOc1ccccc1F | inconclusive [inhibitor, single point] | 
CCOC(=O)Cn1c(=N)n(CCOc2cccc(C)c2)c2ccccc21 | inconclusive [inhibitor, single point] | 
Clc1ccc(CON/C=N/c2ncnc3sccc23)c(Cl)c1 | inconclusive [inhibitor, single point] | 
CCc1c(C)nc2ncnn2c1N1CCC(C(=O)Nc2cccc(C(C)=O)c2)CC1 | inconclusive [inhibitor, single point] | 
COc1ccccc1CN=C1NC(=O)C(CC(=O)Nc2ccc(C(C)=O)cc2)S1 (centres undefined) |  | inactive: -2.28%
Cc1cccc(C)c1NC(=S)Nc1c(C)n(C)n(-c2ccccc2)c1=O |  | inactive: 4.02%
COC(=O)C(=O)/C=C(\O)c1ccc(C)cc1 | inconclusive [inhibitor, partial curve] | 

Compound | Potency | activity, negative = inhibition
COc1ccc(/C(C)=N/OC/C(O)=C(\C#N)c2nc3ccccc3[nH]2)cc1 | inconclusive [activator, single point] | 
Nc1nc(C2CC2)c(Sc2sc(N)nc2C2CC2)s1 |  | inactive: -7.81%
Cn1c(=O)c2c(nc(NCc3ccc4c(c3)OCO4)n2Cc2ccc(F)cc2)n(C)c1=O | inconclusive [activator, partial curve] | 
COc1ccccc1N1CCN(C(=O)COc2cc(C)cc(C)c2)CC1 |  | inactive: 0.678%
COCc1cc(Sc2ccc(Cl)cc2Cl)nc(-c2ccccc2)n1 | inconclusive [inhibitor, partial curve, poor fit] | 
COc1ccc(N(C)S(=O)(=O)c2cccc(C(=O)OC(C(=O)Nc3cc(C)cc(C)c3)c3ccccc3)c2)cc1 (centres undefined) | inconclusive [inhibitor, partial curve] | 
CCOC(=O)c1sc2c(c1C)C(c1cccs1)C1=C(CCCC1=O)N2 (centres undefined) | inconclusive [activator, single point] | 
COc1ccc(CNC(=O)Cn2cnc3c(=O)n(C)c(=O)n(C)c32)cc1 | inconclusive [inhibitor, single point] | 
N#C/C(=C\c1ccc[nH]1)S(=O)(=O)c1ccccc1 |  | inactive: -2.81%
CCCCC1=CC2=CC(=O)C(C)(OC(=O)c3ccco3)C(=O)C2=CO1 (centres undefined) | inconclusive [activator, full curve, poor fit] | 
CCN1CCSc2ccc(C(=O)NCc3ccccc3Br)cc21 | inconclusive [activator, full curve, poor fit] | 
COCCCN1C(=O)C(O)=C(C(=O)c2ccco2)C1c1ccccc1 (centres undefined) |  | inactive: 6.34%
CNC(=O)COC(=O)c1cc(F)c(F)cc1Cl |  | inactive: -0.393%
Cc1[nH]c2ccc(F)cc2c1CCN(Cc1ccncc1)C(=S)Nc1ccc(F)cc1 |  | inactive: -3.39%
CCN(Cc1ccccc1)S(=O)(=O)c1ccc(F)c(C(=O)Nc2cc(C(F)(F)F)ccc2Cl)c1 |  | inactive: -13.2%
CC(C)[C@H](CO)Nc1nc(NCc2ccc(S(N)(=O)=O)cc2)c2ncn(C(C)C)c2n1 | inconclusive [inhibitor, single point] | 
Clc1ccc(-c2nc3cnccn3c2NC2CCCC2)cc1 | inconclusive [activator, single point] | 
CCOc1ccc(CCNC(=O)c2cnc3sc(N4CCCCC4)nn3c2=O)cc1 |  | inactive: -5.62%
CN1CCN(C2=C(Cl)C(=O)N(c3ccc(Cl)c(Cl)c3)C2=O)CC1 | inconclusive [inhibitor, partial curve] | 
CCOc1cccc2sc(NC(=O)CS(=O)(=O)c3ccc(C)cc3)nc12 | inconclusive [inhibitor, partial curve, poor fit] | 
CCc1ccc(NC(=O)C(CC)Sc2nc3cc4c(cc3c(=O)n2Cc2ccco2)OCO4)cc1 (centres undefined) |  | inactive: 5.36%
CCCCNS(=O)(=O)c1ccc2nc(SCC(=O)Nc3ccccc3Cl)[nH]c2c1 | active: 25.1 µM | 
O=C(Nc1cc(C(F)(F)F)ccc1Cl)c1cnn(-c2ccccc2)c1-n1cccc1 | inconclusive [inhibitor, single point] | 
